Our source for the binding values is publication PMC2927437.

By UniProt entry, the sequences of proteins in these tests, tags left out.
UniProt Q9CQJ4: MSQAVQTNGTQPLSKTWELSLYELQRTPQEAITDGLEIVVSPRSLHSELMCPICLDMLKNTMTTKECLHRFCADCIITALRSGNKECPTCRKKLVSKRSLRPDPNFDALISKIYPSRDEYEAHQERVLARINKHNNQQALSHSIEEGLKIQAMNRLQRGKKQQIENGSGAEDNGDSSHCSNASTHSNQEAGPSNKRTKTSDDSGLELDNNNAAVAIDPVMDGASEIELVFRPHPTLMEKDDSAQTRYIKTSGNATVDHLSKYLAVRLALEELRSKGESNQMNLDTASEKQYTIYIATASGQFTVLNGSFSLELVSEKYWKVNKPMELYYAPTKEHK
UniProt Q61188: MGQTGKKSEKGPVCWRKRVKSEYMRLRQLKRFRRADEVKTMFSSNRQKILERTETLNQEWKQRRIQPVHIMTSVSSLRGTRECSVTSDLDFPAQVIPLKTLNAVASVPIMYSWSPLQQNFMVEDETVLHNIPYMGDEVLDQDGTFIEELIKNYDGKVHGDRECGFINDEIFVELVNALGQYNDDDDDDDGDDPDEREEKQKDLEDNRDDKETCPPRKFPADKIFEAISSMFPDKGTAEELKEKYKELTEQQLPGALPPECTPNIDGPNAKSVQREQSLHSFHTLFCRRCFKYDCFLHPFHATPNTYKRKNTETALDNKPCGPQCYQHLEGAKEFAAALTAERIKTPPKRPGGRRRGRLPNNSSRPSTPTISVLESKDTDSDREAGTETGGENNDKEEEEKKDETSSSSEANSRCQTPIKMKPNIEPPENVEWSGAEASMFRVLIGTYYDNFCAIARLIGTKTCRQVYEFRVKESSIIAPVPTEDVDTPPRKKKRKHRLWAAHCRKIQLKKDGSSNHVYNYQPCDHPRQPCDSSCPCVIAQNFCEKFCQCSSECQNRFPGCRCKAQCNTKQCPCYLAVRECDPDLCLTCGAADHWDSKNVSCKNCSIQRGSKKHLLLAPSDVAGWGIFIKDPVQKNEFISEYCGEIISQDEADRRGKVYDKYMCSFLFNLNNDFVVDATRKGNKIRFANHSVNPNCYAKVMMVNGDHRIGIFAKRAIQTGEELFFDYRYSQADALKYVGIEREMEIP

In experiment [1] the target is T1, endogenous Bmi1 (mouse (endogenous in MEFs)) (UniProt P25916).
T1 sequence: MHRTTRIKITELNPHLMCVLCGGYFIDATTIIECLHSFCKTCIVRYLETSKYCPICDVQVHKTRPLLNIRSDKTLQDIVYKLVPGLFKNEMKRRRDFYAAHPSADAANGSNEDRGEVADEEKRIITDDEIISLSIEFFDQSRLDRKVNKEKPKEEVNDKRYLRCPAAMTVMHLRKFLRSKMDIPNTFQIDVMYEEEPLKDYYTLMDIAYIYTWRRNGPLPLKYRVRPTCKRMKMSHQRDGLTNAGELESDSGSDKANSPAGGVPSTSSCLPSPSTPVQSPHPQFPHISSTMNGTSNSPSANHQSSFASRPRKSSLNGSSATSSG
Briefly: co-IP; endogenous proteins; whole-cell extracts of MEFs immunoprecipitated with rabbit anti-Zfp277 serum or anti-Bmi1 monoclonal antibody, control IgG; Western blot. A general note: Immunoblotting shows a protein as a band on a membrane.

Experiment [2] concerns the target T2, endogenous Zfp277 (mouse (endogenous in MEFs)) (UniProt E9Q6D6).
T2 sequence: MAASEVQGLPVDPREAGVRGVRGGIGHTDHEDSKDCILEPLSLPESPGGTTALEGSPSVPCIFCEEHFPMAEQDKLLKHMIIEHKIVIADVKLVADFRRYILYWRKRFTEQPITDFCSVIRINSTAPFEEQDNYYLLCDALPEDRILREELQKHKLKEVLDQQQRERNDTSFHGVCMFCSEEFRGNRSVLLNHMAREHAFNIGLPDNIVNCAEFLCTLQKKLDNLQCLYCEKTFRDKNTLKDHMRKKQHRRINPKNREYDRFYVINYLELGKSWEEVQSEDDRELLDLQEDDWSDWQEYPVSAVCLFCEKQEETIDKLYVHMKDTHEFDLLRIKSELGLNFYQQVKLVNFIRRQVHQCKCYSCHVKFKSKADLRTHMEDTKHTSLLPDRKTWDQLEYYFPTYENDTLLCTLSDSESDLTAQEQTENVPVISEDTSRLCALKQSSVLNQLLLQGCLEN
The experiment is described as above.

Experiment [3] concerns the target T3, HA-tagged Zfp277^1-140 (mouse) (UniProt E9Q6D6).
T3 sequence: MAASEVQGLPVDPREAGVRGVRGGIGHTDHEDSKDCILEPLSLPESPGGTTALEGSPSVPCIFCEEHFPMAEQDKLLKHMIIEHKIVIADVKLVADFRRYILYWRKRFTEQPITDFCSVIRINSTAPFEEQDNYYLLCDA
Description: co-IP; HA-tagged deletion mutants of Zfp277 and Flag-tagged Bmi1 cotransfected into 293T cells, 48 hrs; immunoprecipitated with anti-HA, blotted with anti-Flag or anti-HA.

Experiment [4] deals with T4, HA-tagged Zfp277^1-58 (mouse) (UniProt E9Q6D6).
T4 sequence: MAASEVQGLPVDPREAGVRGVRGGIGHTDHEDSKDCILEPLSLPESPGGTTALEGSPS
Described as above.

The next experiment addresses T5, GST-Zfp277 (mouse) (UniProt E9Q6D6).
T5 sequence: T2 sequence
Description: pull-down; GST in vitro binding assay: GST fusion protein with in vitro-translated partner; only the target purified.

For the next experiment, the target named is Flag-tagged Ring1B (UniProt Q9CQJ4). Briefly: co-IP; HA-Zfp277 cotransfected with Flag-tagged Bmi1, Ring1B, Ezh2 or Myc-tagged Mel18 into human 293T cells; lysis in 20 mM sodium phosphate pH 7.0, 250 mM NaCl, 0.1% NP-40, 4°C; Western blot of the immunoprecipitates.
The next experiment has as its target T6, Myc-tagged Mel18 (UniProt P23798).
T6 sequence: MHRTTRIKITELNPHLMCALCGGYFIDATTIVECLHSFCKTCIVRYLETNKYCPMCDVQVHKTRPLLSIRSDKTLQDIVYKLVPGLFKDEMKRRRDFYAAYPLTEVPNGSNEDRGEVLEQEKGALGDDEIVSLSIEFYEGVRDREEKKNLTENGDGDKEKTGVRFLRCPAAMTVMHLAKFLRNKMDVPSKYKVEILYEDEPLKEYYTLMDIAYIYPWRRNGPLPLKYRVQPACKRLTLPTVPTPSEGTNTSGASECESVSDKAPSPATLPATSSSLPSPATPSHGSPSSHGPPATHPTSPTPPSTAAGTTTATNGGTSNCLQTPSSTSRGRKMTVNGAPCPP
Described as above.

Experiment [5] concerns the target T7, Flag-tagged Bmi1 fused with GFP (UniProt P25916).
T7 sequence: T1 sequence
The description is as above.

The target of another experiment is Flag-tagged Ezh2 (UniProt Q61188). The experiment is described as above.
A further experiment concerns the target T8, GST-Bmi1 (UniProt P25916).
T8 sequence: T1 sequence
Description: pull-down; GST in vitro binding assay: GST fusion protein with in vitro-translated partner; only the target purified.

No constants are given. Whether binding was seen depends on the method and setting. Binding seen in cells or lysates may run through a third protein. Some entries that bind do so weakly or less than the wild type. For part of these data: Tags and fused reporters may be left off the sequences shown.

As for “endogenous Ring1B (from UniProt Q9CQJ4 1-336)”, the binding result in experiment [1] was “binds”.

Regarding “endogenous Ezh2 (from UniProt Q61188 1-746)”, in experiment [2], the binding entry was “no binding”.

B1: endogenous Bmi1 (protein, UniProt P25916 1-324)
chain: T1 sequence
Turning to B1, in experiment [2], the binding entry is “binds”.

B2: Flag-tagged Bmi1 fused with GFP (protein, UniProt P25916 1-324)
chain: T1 sequence
B2: the binding result in experiment [3] and in experiment [4] was “binds” in each case.

B3: in vitro-translated Mel18 (protein, UniProt P23798 1-342)
chain: T6 sequence
On to B3, for which the binding result in the experiment with GST-Zfp277 (mouse) is on record as “no binding”.

B4: HA-tagged Zfp277 (Zinc finger domain-containing protein 277) (protein, UniProt E9Q6D6-2 1-457)
chain: T2 sequence
Take B4: the binding entry with Flag-tagged Ring1B is reported as “no binding”; with Myc-tagged Mel18, “no binding”; in [5], “binds”; with Flag-tagged Ezh2, “no binding”.

B5: in vitro-translated Zfp277 (protein, UniProt E9Q6D6-2 1-457)
chain: T2 sequence
Consider B5, for which the binding entry with GST-Bmi1 is on record as “binds”.

B6: endogenous Zfp277 (protein, UniProt E9Q6D6-2 1-457)
chain: T2 sequence
Consider B6, for which the binding entry in [1] was “binds”.
